The whole screen tested about 310,000 compounds, of which about 2,200 (0.71%) showed an effect of 50% or more. The effect is printed as a negative number. This is one part of the list.
molecular target: human ether-à-go-go-related gene (hERG) potassium channel (human, UniProt Q12809); assay: primary screen, population patch clamp on CHO cells stably expressing hERG
Sequence (Q12809 whole entry, looked up): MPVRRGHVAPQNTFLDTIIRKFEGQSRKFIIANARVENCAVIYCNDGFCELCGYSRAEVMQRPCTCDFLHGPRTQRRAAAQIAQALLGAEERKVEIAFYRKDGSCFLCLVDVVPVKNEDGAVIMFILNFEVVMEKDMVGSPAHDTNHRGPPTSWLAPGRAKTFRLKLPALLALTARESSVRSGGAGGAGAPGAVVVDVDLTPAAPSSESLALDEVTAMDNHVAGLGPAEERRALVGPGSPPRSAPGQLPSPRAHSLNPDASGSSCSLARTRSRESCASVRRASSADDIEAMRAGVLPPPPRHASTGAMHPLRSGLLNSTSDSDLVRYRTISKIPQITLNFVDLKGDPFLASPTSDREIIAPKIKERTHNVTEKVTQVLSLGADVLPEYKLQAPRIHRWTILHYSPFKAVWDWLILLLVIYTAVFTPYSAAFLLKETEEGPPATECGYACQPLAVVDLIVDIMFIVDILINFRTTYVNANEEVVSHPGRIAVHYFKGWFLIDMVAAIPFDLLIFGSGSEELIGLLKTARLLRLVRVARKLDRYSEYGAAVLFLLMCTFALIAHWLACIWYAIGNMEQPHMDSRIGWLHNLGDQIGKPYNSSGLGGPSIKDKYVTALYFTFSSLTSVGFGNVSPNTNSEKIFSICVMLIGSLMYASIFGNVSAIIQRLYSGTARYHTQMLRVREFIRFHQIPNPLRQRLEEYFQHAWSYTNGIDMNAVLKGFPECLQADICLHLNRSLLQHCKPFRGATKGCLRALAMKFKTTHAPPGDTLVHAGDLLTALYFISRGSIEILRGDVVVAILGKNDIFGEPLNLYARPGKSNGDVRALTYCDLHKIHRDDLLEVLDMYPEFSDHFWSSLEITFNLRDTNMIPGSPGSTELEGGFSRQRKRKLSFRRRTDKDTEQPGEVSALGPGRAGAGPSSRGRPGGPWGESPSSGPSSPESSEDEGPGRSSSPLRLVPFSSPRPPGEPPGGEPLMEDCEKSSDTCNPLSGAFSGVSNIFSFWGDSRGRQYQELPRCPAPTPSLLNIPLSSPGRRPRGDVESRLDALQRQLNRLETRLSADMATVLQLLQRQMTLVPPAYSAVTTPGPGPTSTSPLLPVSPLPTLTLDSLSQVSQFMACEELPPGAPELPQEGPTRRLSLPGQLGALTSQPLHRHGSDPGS

Compound | hERG current change (%, negative = inhibition) at 1uM [%]
O=C1CSC(c2ccncc2)N1Cc1ccc(F)cc1 (stereo not drawn) | 11.3
O=C(/C=C/c1cccs1)N1CCC2(CC1)Oc1ccc(Cl)cc1C(=O)C21CC(c2ccccc2)=NO1 (stereo not drawn) | 17.1
O=C(COc1coc(CN2CCc3ccccc3C2)cc1=O)Nc1ccccc1F | 7.92
Cc1cc(NS(=O)(=O)c2ccc(NC(=O)/C=C/c3cccc(Cl)c3)cc2)no1 | 16.1
COc1ccc(/C=C/C=C2\NC(=S)NC2=O)cc1 | 14.5
CC(=O)c1sc(NC(=O)C2CSC3(C)CCC(=O)N23)nc1-c1ccccc1 (stereo not drawn) | 4.11
Cc1cc(C)c(NS(=O)(=O)c2c(C)noc2C)c(C)c1 | 12.6
Cc1cccc(NS(=O)(=O)c2ccc(C(=O)NCC3(N4CCCCC4)CCCCC3)cc2)c1C | -0.915
CCC1CCCCN1C(=O)c1ccccc1OC1CCN(S(C)(=O)=O)CC1 (stereo not drawn) | 9.54
Cc1cc(C)n(CC(=O)c2cccc([N+](=O)[O-])c2)n1 | 11.9
O=C1NC2(C=Cc3c(ccc4ccccc34)O2)Oc2ccccc21 (stereo not drawn) | 11.9
CC1Cc2ccccc2N1C(=O)CN1CCN(Cc2ccccc2)CC1.O=C(O)C(=O)O (stereo not drawn) | 12.6
CCC(NC(=O)NNC(N)=S)(C(F)(F)F)C(F)(F)F | 2.63
COC1CCCN(Cc2c(C(=O)N3CCc4ccccc4C3)nc3ccc(Cl)cn23)C1 (stereo not drawn) | 4.27
CCOc1ccc(N2CC(NS(=O)(=O)c3cccs3)CC2=O)cc1 (stereo not drawn) | 11.6
CCOc1ccc(Nc2nc(Cc3nnc(SCC(=O)N(CC)CC)n3C)cs2)cc1 | 3.38
COc1ccc(CCNC(=O)c2ccccc2)cc1 | 7.62
COc1ccc(-c2cc(CNS(=O)(=O)c3ccc(F)cc3)on2)cc1 | 18.4
Cc1ccc(CNC(=O)COC(=O)c2ccc(Cl)c(N)c2)cc1 | 2.65
COc1ccc(C(=O)Nc2ccccc2C(=O)N2CCOCC2)cc1 | 17
CC1(C)CC(=O)N(c2cccc(Cl)c2)C(=O)C1 | 12.1
OCC(CBr)(CBr)CBr | 20.2
O=C(Nc1ccc2nc3n(c(=O)c2c1)CCCCC3)C(=O)N1CCN(c2ccccc2F)CC1 | 14.7

Compound | hERG current change (%, negative = inhibition) at 1uM [%]
C=CCN1C(=O)/C(=C/c2ccc3c(c2)CCCN3CCC)C(=O)NC1=S | 6.31
CC(CNC(=O)c1ccc(N)cc1)NC(=O)c1ccc(N)cc1 (stereo not drawn) | 12
C=CCn1sc(=N)c(C#N)c1N | 0.476
O=C(CSc1ccc(-c2ccco2)nn1)NC1CCCCC1 | -2.98
COc1ccc(CCNC(=O)CCS(=O)(=O)c2ccc(Br)cc2)cc1OC | -3.51
Cc1cc(NC(=O)c2cccc(Br)c2)n[nH]1 | 8.04
O=C(O)c1ccccc1S(=O)(=O)Cc1ccccc1 | 9.84
Cc1nc2ccc(NC(=O)c3ccc4ccccc4n3)cc2s1 | 12.1
COc1ccc(NC(=O)C2(c3ccc(NC(=O)c4ccc(OC(C)=O)cc4)cc3)CCCC2)cc1 | 11.8
Nc1nc(SCC(=O)Nc2cc(C(F)(F)F)ccc2Cl)[nH]c(=O)c1NC(=O)c1ccco1 | 16.7
CN(C(=O)NC1CC(=O)N(c2ccc3c(c2)OCCO3)C1)c1ccccc1 (stereo not drawn) | 2.53
COc1ccc(C)cc1NC(=O)C(Sc1nnc2ccccn12)c1ccccc1 (stereo not drawn) | -20.9
CCN(CC)C(=O)C(Sc1nnnn1-c1ccc(O)cc1)c1ccccc1 (stereo not drawn) | 14.1
O=C(O)C1=C[C@H](c2ccc(F)cc2)C[C@H](OCc2ccc(CO)cc2)O1 | 4.46
COc1ccc(NS(=O)(=O)c2cc(NC(=O)/C=C/c3cc(OC)c(OC)c(OC)c3)ccc2N2CCCCC2)cc1 | 6.88
O=C1C2C3C=CC(CC3)C2C(=O)N1c1cccc(Br)c1 (stereo not drawn) | 18.4
Cc1cnc(CNC(=O)C2CCC(=O)N(CCc3cccc(F)c3)C2)[nH]1 (stereo not drawn) | 7.57
CCCCn1c(N)c(N(CC(C)C)C(=O)c2cc(-c3ccncc3)nc3ccccc23)c(=O)[nH]c1=O | 12.3
Cc1cc(C(=O)OCC(=O)Nc2sc3c(c2C#N)CCC(C)C3)c2ccccc2n1 (stereo not drawn) | -1.12
Cc1cc(OCCN2CCOCC2)ccc1[N+](=O)[O-].O=C(O)C(=O)O | 10.6
C=CCn1c(=N)n(CC(O)COc2ccccc2OC)c2ccccc21.Cl (stereo not drawn) | -43.5
CCOC(=O)c1cnc(-n2nc(C)cc2C)nc1NC | -0.773
CCOc1ccccc1NC(=O)Cn1nnc(C(=O)NCc2cccs2)c1N | 12.1

Compound | hERG current change (%, negative = inhibition) at 1uM [%]
N#Cc1c(Nc2ccccc2)sc(C(=O)c2ccc(F)cc2)c1N | 8.25
O=C(Cn1ncc(N2CCOCC2)c(Cl)c1=O)c1ccc(Cl)cc1 | -2.13
COc1ccccc1NC(=O)Cn1nc(-c2ccc3c(c2)OCCO3)ccc1=O | 2.91
CCCc1n[nH]c(=O)[nH]1 | 7.57
COc1cc(NC(=O)C2CC3CCC2C3)c(OC)cc1Cl (stereo not drawn) | 14.4
O=C(CCCc1ccccc1)Nc1ccnn1C1CCN(Cc2ccccn2)CC1 | 0.247
Cc1ccccc1NC(=O)Nc1ccc(C(F)(F)F)cc1 | 22
O=C(NC(Cc1ccc(O)cc1)C(=O)O)c1ccco1 (stereo not drawn) | 14
Cc1ccc(S(=O)(=O)N2CCN(C)CC2)cc1[N+](=O)[O-] | -2.01
O=C(CCCSc1ccccc1)Nc1ccc(Cl)c(S(=O)(=O)N2CCOCC2)c1 | 9.14
CC(C)(C)OC(=O)N[C@@H](COCc1ccccc1)C(=O)N[C@@H](CO)[C@H](O)[C@@H]1C[C@@H]1C(=O)NC1CCCCC1 | 16.9
CC(C)CN(C(=O)CN1CCc2ccccc21)c1c(N)n(CC(C)C)c(=O)[nH]c1=O | 7.84
CN1CCN(S(=O)(=O)c2cccc(C(=O)Nc3cccc(S(N)(=O)=O)c3)c2)CC1 | 19.9
NCC(O)COc1ccc2c(c1)OCO2 (stereo not drawn) | 7.71
CCCCn1ccnc1C(=O)c1ccc(S(=O)(=O)N2CCCC2)cc1 | 10.7
O=C(c1cc(-c2cccc(Cl)c2)on1)N1CCN(c2ccc(F)cc2)CC1 | 7.74
COc1ccc(CCN2CC(C(=O)NCC3(O)CCCCC3)CCC2=O)cc1 (stereo not drawn) | 17.2
O=C(COC(=O)c1ccccc1F)NC(=O)NC1CCCC1 | 13.7
CC/C(=C\C1CCCCC1)C(NP(=O)(c1ccccc1)c1ccccc1)c1ccccc1 (stereo not drawn) | 12.8
Cc1cc(NC(=O)CSc2nccn2C)no1 | 2.28
COCCn1c(SCC(=O)NNC(=O)c2ccccc2)nc2ccccc2c1=O | 6.09
O=C(CCC1CCCCC1)Nc1cc(C(F)(F)F)ccc1N1CCOCC1 | 11.8
CCn1c(CC(=O)Nc2cccc(OC)c2)nnc1SCC(=O)N1CCN(c2ccccc2)CC1 | 12

Compound | hERG current change (%, negative = inhibition) at 1uM [%]
CCOc1ccc(NC(=O)CCC(=O)N/N=C/c2ccc([N+](=O)[O-])s2)cc1 | -4
COCCNC(=O)c1ccc(CS(=O)(=O)c2c(Cl)cccc2Cl)o1 | 2.14
COc1ccc(C(=O)NCC(=O)N/N=C(\C)c2ccco2)cc1OC | 18.9
COC(=O)c1cccc(NC(=O)Cc2ccsc2)c1 | -2.46
Cc1ccc(-n2nc3c(c2NC(=O)c2ccccc2Br)CS(=O)C3)cc1 (stereo not drawn) | 20.2
Cc1cccc(CNC(=O)c2ccccc2NC(=O)C2=CSCCO2)c1 | 15.3
CC1CCN(C(=O)COC(=O)c2cn(C)c3ccccc23)CC1 | 7.49
NC(=S)Cc1nc(-c2ccccc2)cs1 | 8.89
O=C(NCc1cccnc1)c1ccc(-c2ccccc2[N+](=O)[O-])o1 | -0.14
Cc1sc2ncn(CCn3cnc4sc(C)c(C)c4c3=O)c(=O)c2c1C | 10.3
COc1ccc(NC(=O)CSc2nnc(-c3cccs3)n2N)c(OC)c1 | 10.2
O=C(O)c1cccc(-n2cccc2/C=N/O)c1 | 17.2
CN(CC(=O)N1CCCC1)S(=O)(=O)c1ccc(Cl)cc1 | -7.18
C=CCN1C(=NC(=O)CC)SC2CS(=O)(=O)CC21 (stereo not drawn) | 20.1
NC(=O)C1CCCN(S(=O)(=O)c2ccc(Br)cc2)C1 (stereo not drawn) | 2.8
COc1ccc(Cn2c(O)c(C=NCCN3CCOCC3)c(=O)[nH]c2=O)cc1 | -7.45
Cc1cccc(-n2cc(C(=O)O)c(=O)cc2C)c1 | 8.4
CC(C(=O)c1ccc(Br)cc1)[n+]1cccc2ccccc21.[Br-] (stereo not drawn) | 3.94
O=C(c1ccccn1)N1CCCC(N2CCN(c3ccccc3)CC2)C1 (stereo not drawn) | 10.2
Cc1ccccc1NC(=O)c1ccccc1O | 19.5
COc1ccc(C)cc1C(=O)C1CC(C(=O)O)C(C)(C)C1C (stereo not drawn) | 6.86
